From article PMC9008427, “Identification of a STIM1 Splicing Variant that Promotes Glioblastoma Growth” (Advanced Science, 2022)

Target: the molecule itself
Assay: SEC; purified recombinant protein on a Superose 6 10/300 GL column, Bio-Rad Gel Filtration Standard as size markers; fractions checked by SDS-PAGE

B1: (His)6-STIM1([…]) (domain or fragment)
chain: not shown
notes: cytoplasmic domain of human STIM1, […], cloned into pPro-EX-HTb between BamHI and XhoI; also called recombinant STIM1-CT; STIM1-CT; source: E. coli BL21 (DE3), purified (Ni-NTA, gel filtration on Superose 6)
binding result: binds
